This is an account of results in paper PMC10668032.

Some of the results follow. At the low end of the ranking the order means little.

The experiment deals with SIX1-Q177R homeodomain (UniProt Q15475). Description: universal protein binding microarray. Particulars: Universal all-10-mer PBM (8x60K, AMADID 030236), 300 nM GST-tagged protein, Alexa Fluor 488 anti-GST; buffer, salt, pH and temperature not stated; high values mean tight binding; most listed sequences are background and not binding sites; double strand, one strand shown.
For ACTGTCTG, the binding signal was -0.135 E-score.
Next, ACTAACCC: 0.0819 E-score; CCAGTCAC: 0.122 E-score.
Under TCCCCTCA stands 0.144 E-score; under ACCGTACT, 0.224 E-score.
As to ATCGCTAA, the binding signal turned out to be 0.0811 E-score.
On to TAGTTATA, for which the binding signal is -0.105 E-score.
Turning to ATGTTTAG, the binding signal was -0.132 E-score.
Next, AAGCGAGA: -0.128 E-score; AAATGTGC: 0.02 E-score; CTCGGATC: 0.0314 E-score.
Next, TAGTCCCA: -0.147 E-score; ACTCACCT: -0.0467 E-score; AGTCCAGG: 0.0768 E-score.
As to ATCTACTA, the binding signal is -0.107 E-score.
As for ATGATCAA, the binding signal is -0.245 E-score.
Under ACAATCCG stands -0.172 E-score.
Under AGGGCTTC stands -0.24 E-score; under CTGGATGA, -0.0322 E-score.
With CTGCCTGC, the binding signal stood at 0.0272 E-score.
Next, ATAAGTGC: -0.092 E-score; GAGGGCGA: -0.0804 E-score; TCTATGCA: 0.0525 E-score.
Under ATGATGGA stands -0.158 E-score; under ACGTCTGA, -0.00618 E-score.
Under AGCAGAAT stands -0.16 E-score.
With TCCTAGGA, the binding signal came to 0.22 E-score.
Next, CTAAAAAG: -0.261 E-score.
Next, TCATGTAA: -0.0879 E-score.
Next, GCTCGTAA: -0.04 E-score; AGAATGAA: -0.211 E-score; AGAAATAC: -0.183 E-score.
Consider GAGGGTGA, for which the binding signal is 0.00643 E-score.
With GACGCCTA, the binding signal was 0.0183 E-score.
Next, ATGGGCGG: 0.0131 E-score.
Under GACTAAAA stands -0.156 E-score; under ATACGCAC, 0.0577 E-score; under ACTCTTCT, 0.114 E-score.
In the case of ACACAACG, the binding signal is 0.121 E-score.
Next, GAGCTAGA: -0.13 E-score; CAATCCAA: -0.124 E-score.
For CCCATGGC, the binding signal amounted to 0.0361 E-score.
Under GACTATAC stands 0.00243 E-score.
For CATGTGGG, the binding signal is -0.0923 E-score.
Under CCGTACAA stands -0.0953 E-score.
Under AAGTCACT stands -0.085 E-score; under CTTAGGGA, 0.151 E-score; under CGGCGTCA, 0.219 E-score.
Next, CTGCGTAC: 0.0915 E-score; GACACCCA: 0.479 E-score; CGTCATAA: 0.0374 E-score.
As for CACTCCAC, the binding signal was determined as 0.191 E-score.
With CCGTCTAG, the binding signal was -0.0319 E-score.
Under GGGGTTTA stands 0.281 E-score.
Under AGGGCTCA stands -0.117 E-score; under CCTTCAGC, -0.18 E-score; under AACTTGCG, -0.0249 E-score.
Under TACAACAA stands -0.0349 E-score; under TGATCGAA, -0.0513 E-score.
In the case of GAAGGGCA, the binding signal is -0.112 E-score.
As for ATTCAACG, the binding signal was -0.0463 E-score.
Next, GCTACGAA: -0.0335 E-score; GCACGAGC: 0.051 E-score; AAGCTATA: -0.236 E-score.
Under TAATAGGA stands -0.0923 E-score.
Under CGATAAGC stands -0.0308 E-score.
Take CGGGCCCG: the binding signal is -0.0101 E-score.
Next, GCCCAGGC: -0.0578 E-score.
Next, AGAAAACT: -0.112 E-score; CACGAATG: 0.00144 E-score; GGGTTTCA: 0.15 E-score.
Next, AGATCGAC: -0.0333 E-score; ATCAATTC: -0.18 E-score; AGAGAGCA: -0.138 E-score.
Turning to GATGGCCC, the binding signal is -0.0244 E-score.
Take AAAAAGCA: the binding signal was -0.293 E-score.
Next, AAGCGCAC: 0.0562 E-score; AAACTGGA: -0.0577 E-score; AGCAGGAA: -0.172 E-score.
As for ACGGGTTC, the binding signal turned out to be 0.0664 E-score.
Under CAATAGCG stands 0.137 E-score.
ACTGTCAA: the binding signal is -0.182 E-score.
Next, ATAGCTCG: -0.164 E-score.
In the case of GCCCTTCC, the binding signal is -0.187 E-score.
Under CACGCCAA stands 0.143 E-score; under AAAGATTT, -0.308 E-score.
Under AGAGTGGC stands -0.15 E-score.
Take AAGAAGCT: the binding signal was -0.266 E-score.
As to AACCTACA, the binding signal came to 0.192 E-score.
Next, ATAAGAGC: -0.187 E-score; CCACGCGC: -0.147 E-score; GATGGTCA: -0.316 E-score.
Under CAAAAAAA stands -0.173 E-score.
Next, ACAAGCGG: -0.00626 E-score.
